This passage reports binding results from PMC7341970.

Amino acid sequences for entries named in this document (tags omitted).
UniProt Q6PDQ2: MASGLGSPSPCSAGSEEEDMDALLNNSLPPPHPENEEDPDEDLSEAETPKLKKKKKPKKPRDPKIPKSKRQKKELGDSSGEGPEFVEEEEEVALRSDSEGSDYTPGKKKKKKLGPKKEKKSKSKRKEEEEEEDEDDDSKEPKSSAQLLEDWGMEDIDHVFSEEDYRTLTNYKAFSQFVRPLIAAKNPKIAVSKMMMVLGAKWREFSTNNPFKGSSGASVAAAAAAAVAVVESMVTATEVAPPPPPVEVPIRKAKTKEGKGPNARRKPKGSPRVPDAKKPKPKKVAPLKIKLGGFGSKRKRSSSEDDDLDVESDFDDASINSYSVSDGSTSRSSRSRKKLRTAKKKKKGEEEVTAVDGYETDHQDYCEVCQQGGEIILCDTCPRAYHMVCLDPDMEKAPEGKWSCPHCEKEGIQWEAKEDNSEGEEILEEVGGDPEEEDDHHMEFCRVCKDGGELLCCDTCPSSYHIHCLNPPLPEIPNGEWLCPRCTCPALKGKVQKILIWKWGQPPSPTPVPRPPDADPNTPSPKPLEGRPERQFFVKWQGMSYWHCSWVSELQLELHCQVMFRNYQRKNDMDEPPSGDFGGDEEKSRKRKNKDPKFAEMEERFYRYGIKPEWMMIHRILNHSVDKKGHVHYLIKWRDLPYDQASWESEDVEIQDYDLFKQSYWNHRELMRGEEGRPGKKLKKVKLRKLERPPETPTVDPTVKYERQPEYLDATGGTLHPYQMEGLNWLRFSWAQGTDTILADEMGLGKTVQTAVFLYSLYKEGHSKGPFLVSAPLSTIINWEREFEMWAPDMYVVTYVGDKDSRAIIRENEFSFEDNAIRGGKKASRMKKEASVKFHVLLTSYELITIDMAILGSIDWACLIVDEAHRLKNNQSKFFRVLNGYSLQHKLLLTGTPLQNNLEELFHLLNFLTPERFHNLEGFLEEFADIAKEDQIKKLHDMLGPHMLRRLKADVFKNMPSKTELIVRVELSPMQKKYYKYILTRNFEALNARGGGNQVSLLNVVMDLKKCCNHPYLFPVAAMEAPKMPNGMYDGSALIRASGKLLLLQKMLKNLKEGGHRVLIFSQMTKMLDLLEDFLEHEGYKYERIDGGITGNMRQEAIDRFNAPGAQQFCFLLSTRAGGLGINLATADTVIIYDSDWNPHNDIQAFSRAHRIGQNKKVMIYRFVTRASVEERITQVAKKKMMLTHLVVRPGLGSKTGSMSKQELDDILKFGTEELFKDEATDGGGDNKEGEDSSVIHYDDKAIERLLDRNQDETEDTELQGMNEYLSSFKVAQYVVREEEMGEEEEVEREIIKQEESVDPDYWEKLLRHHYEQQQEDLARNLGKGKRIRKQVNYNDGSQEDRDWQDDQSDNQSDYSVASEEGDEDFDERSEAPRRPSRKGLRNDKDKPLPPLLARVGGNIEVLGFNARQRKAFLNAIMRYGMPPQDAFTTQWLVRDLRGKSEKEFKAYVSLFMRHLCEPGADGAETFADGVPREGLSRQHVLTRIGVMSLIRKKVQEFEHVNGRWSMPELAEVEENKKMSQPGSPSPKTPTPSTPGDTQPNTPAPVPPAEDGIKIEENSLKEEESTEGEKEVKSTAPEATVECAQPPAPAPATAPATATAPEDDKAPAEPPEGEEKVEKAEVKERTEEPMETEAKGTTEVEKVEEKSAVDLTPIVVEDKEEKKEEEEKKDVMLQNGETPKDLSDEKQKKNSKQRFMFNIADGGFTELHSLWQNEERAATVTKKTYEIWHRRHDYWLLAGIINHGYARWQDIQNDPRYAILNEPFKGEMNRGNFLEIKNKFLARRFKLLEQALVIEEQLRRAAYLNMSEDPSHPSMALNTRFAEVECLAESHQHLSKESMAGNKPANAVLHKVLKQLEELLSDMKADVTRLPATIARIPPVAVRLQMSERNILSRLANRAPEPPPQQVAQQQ
UniProt A2BH40: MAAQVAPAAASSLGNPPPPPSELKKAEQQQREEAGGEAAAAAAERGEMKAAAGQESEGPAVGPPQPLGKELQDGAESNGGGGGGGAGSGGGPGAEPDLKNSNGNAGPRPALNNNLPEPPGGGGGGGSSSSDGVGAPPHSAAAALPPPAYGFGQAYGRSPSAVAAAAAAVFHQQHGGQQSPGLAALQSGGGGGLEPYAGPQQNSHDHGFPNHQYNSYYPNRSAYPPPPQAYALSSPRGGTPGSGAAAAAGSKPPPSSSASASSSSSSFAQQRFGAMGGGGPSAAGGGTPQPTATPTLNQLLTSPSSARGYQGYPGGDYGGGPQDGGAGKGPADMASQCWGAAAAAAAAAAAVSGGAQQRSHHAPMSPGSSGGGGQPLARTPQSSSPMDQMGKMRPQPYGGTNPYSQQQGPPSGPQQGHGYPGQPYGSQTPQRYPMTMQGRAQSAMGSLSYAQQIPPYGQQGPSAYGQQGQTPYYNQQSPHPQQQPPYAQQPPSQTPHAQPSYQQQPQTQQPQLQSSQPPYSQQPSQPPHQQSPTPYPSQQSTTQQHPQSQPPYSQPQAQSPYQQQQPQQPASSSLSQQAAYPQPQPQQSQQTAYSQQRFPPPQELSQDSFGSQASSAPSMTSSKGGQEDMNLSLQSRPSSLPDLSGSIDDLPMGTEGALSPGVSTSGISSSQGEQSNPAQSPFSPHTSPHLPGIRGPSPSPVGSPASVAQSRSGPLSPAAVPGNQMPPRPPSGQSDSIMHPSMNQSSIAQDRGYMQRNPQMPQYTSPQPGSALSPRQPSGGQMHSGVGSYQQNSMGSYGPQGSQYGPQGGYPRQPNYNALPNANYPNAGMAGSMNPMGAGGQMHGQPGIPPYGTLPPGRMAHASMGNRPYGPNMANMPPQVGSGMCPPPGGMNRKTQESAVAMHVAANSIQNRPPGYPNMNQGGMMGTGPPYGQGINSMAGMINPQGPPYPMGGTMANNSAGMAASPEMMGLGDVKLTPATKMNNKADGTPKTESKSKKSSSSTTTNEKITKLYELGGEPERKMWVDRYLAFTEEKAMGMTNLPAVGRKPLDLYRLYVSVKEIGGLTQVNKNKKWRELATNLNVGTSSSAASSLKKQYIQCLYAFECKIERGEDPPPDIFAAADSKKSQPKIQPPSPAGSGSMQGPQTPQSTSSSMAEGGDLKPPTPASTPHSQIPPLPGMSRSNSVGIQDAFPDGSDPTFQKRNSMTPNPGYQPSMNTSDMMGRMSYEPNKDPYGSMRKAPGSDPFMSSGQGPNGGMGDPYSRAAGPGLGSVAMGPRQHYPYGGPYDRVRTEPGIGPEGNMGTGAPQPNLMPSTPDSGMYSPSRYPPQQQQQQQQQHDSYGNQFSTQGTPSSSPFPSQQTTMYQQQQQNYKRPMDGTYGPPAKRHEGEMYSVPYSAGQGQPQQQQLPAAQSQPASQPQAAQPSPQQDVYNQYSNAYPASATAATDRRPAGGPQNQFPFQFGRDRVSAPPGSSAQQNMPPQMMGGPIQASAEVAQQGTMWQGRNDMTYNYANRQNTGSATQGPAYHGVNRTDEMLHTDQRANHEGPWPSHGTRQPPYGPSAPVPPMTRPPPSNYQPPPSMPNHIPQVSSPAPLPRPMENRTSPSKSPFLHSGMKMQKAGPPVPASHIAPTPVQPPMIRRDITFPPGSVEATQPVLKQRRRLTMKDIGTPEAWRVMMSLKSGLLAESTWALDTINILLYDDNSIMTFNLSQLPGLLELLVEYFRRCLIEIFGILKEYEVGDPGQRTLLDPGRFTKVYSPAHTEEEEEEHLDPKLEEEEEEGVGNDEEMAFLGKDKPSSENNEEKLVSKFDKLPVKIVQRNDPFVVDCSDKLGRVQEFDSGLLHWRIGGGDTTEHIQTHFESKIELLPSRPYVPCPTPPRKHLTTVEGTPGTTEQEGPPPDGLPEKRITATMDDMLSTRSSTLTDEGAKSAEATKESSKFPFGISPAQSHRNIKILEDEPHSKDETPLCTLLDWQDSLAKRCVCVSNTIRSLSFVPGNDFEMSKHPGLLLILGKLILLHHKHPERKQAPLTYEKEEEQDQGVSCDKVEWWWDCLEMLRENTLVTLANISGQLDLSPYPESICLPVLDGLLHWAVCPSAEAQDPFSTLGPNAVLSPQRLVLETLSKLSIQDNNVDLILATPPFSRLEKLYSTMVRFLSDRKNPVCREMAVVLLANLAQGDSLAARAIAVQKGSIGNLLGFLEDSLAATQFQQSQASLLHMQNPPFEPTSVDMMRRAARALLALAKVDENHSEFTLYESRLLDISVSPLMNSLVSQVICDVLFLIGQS
UniProt Q3TKT4: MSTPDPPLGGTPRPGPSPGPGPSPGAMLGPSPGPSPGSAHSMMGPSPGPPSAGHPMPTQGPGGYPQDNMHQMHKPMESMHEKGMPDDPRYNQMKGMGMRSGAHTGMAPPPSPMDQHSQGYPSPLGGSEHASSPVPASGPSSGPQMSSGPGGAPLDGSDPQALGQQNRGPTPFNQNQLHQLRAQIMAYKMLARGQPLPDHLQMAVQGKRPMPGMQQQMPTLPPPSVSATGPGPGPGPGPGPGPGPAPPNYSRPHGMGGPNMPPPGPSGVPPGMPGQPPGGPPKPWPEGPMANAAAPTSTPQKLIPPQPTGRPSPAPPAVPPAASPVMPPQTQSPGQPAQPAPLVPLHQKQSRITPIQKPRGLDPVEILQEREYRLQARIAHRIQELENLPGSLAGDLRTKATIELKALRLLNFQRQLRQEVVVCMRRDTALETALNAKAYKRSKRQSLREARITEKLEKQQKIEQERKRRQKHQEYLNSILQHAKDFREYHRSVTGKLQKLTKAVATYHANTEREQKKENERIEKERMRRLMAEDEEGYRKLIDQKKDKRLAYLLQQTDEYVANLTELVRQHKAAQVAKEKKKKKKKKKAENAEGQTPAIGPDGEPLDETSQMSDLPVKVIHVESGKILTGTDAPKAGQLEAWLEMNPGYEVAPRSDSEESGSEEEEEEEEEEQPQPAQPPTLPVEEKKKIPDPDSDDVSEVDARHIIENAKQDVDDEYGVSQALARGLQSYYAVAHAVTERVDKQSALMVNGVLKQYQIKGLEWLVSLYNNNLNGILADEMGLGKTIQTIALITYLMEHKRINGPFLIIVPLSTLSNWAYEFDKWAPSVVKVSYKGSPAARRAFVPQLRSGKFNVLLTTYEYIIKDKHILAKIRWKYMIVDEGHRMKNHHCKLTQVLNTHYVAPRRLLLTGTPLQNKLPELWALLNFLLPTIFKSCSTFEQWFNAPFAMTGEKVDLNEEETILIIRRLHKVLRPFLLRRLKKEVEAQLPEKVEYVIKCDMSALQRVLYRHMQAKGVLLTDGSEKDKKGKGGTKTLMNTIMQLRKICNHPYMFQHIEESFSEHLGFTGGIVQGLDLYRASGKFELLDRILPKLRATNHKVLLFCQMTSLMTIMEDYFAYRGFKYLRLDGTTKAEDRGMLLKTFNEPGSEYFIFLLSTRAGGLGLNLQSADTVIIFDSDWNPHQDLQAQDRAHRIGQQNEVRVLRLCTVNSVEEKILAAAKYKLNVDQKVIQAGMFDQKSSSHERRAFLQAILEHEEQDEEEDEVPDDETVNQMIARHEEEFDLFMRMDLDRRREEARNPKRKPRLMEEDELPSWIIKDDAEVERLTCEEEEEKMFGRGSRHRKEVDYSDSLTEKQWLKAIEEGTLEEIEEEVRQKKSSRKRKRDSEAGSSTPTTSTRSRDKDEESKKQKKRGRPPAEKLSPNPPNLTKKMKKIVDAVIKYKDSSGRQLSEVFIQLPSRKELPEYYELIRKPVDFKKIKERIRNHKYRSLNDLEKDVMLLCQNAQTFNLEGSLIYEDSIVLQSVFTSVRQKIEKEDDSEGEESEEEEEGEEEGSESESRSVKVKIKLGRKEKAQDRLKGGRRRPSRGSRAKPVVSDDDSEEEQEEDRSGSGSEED

Results are given in words; binding and its absence hold for the method and conditions named. In cells and extracts the contact can be indirect. Some binding calls cover weakened binding; strength is not graded here. For some assays here: Tags and fused reporters may be left off the sequences shown.

In experiment [1] the target is T1, 3 × FLAG-tagged ADNP (full length), induced in Adnp-/- mESCs (mouse) (UniProt Q9Z103).
T1 sequence: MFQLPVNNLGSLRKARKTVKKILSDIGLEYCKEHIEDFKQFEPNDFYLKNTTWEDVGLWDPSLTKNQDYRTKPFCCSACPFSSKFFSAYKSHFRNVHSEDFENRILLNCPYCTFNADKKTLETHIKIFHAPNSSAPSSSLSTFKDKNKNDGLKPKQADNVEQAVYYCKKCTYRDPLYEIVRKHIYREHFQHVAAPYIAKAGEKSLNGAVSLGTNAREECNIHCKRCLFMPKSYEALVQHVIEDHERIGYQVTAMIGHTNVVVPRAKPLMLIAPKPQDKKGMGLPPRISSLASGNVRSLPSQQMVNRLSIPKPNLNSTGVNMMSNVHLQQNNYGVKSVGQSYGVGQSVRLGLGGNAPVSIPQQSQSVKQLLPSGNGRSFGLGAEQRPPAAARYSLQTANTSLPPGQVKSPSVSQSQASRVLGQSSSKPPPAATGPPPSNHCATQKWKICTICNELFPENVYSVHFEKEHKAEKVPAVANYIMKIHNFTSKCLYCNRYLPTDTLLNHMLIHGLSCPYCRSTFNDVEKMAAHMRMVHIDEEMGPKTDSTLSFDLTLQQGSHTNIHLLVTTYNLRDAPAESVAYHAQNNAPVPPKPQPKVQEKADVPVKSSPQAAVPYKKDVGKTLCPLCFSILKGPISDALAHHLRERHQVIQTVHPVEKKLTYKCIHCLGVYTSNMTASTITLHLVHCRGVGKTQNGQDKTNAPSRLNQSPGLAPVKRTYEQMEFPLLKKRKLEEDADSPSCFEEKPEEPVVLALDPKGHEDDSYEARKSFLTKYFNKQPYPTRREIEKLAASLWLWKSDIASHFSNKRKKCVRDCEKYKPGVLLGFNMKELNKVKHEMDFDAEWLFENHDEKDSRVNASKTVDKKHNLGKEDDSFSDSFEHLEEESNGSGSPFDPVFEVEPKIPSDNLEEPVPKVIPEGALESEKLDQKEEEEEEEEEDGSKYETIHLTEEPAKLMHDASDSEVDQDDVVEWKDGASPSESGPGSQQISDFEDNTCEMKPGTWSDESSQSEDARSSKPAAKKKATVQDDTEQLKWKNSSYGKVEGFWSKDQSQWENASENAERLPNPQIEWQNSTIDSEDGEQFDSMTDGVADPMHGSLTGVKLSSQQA
In words: co-IP; first round of sequential IP: anti-FLAG Dynabeads on lysate of 3 × FLAG-ADNP Adnp-/- mESCs (10 μM MG132 for 3 h), overnight at 4°C.

The target of experiment [2] is CHD4, endogenous (mouse (endogenous in mESCs)) (UniProt Q6PDQ2). In words: co-IP; second round of sequential IP: complexes eluted from anti-FLAG beads with 3 × FLAG peptide, re-precipitated with CHD4 antibody, Western blot. (A western blot detects proteins with antibodies after separation by electrophoresis.)
Experiment [3] deals with BAF250a, endogenous (mouse (endogenous in mESCs)) (UniProt A2BH40). Kind of experiment: co-IP; endogenous proteins in mESCs; whole cell lysate on antibody-coupled Dynabeads Protein G overnight at 4°C, Western blot.
Experiment [4] has as its target BRG1, endogenous (mouse (endogenous in mESCs)) (UniProt Q3TKT4). Described as above.

“CHD4, endogenous (from UniProt Q6PDQ2 1-1915)”: in experiment [1], the binding result was “binds”.

With “BRG1, endogenous (from UniProt Q3TKT4 1-1613)”, the binding entry in experiment [1] is reported as “binds”.

B1: 3 × FLAG-tagged ADNP (full length), induced in Adnp-/- mESCs (protein, UniProt Q9Z103 1-1108)
chain: T1 sequence
Take B1: in experiment [2], the binding result is “binds”.

B2: Activity Dependent Neuroprotective Protein (ADNP), endogenous (protein, UniProt Q9Z103 1-1108)
chain: T1 sequence
B2: the binding entry in experiment [3] was “no binding”; in experiment [4] it was “binds”.
